This passage reports self-cleavage results from the RNAGym collection of RNA variant scans (doi:10.7554/elife.90254).

B1: OR4K15 (parent)
chain: GUUAACGGUCAUAGGCCAUGGAAACUAGGAGCACCAUUUCGCUGCCAGUGAAGAAAUGAACAAAGAAAAUCUGGGCCAGGCAGGCAUCAAAAGAAAUAGUCUUGCGCUCAACCAGAAAGUCUGUAAUCAUUUUAAGGGUA

The source gives no read counts; variants with many changes may rest on few reads.

In this data set the parent is B1. Kind of data set: self-cleavage, relative activity (ratio to wild type); higher = more cleavage; in vitro, sequencing; the parent is a self-cleaving ribozyme.
Regarding A36G U72A A92G U100C U124C U132A, the self-cleavage is 0.03.

With C34A A114G A118G, the self-cleavage amounted to 0.28. Then G31C U57A U72C, with 0.29; and A33G U38G A98G, with 0.14; and A36G U43C A47U U103C U108C A114U, with 0.01. As to A36G A56G G73U, the self-cleavage was 0.19. Then A33G A98G U120C A129G, with 0.03; and A33G A66U A67G, with 0.39. For the variant A36G U87C G138A, the self-cleavage amounted to 1.66. The same measure for A33G A96G U130C: 0.5; for A33G A60G A111G: 0.02; for A33G U49A A51G: 0.4. Then C35A A36G U100C C113A, with 0.03.

As for A33G U37A U108A, the self-cleavage was 0.03. The same measure for A33G A64G G74A A140C: 0.17; for A33G A98G U100A U108C A110G: 0.01; for A33U A91G A92C U103G U122C: 0.03. The same measure for C32U G41A A78C A98G: 0.11. The same measure for A33G A36G A64U A91U U102A A126G: 0.53; for C32U U38C U108C A116G A135U: 0. Turning to A33G A54U U124A, the self-cleavage came to 0.55. Then A33U U39C A60G, with 1.4; and A33G U43C U70A U87A U100A, with 0.05. Then C35U U70C U108C A116U U130C, with 0; and A33G A64G U124C, with 0.84. G31A A66U A114G: the self-cleavage is 0.49. As for A36C U39A U97A, the self-cleavage stood at 1.79. Then A36G U72C U100C, with 0.93. With C34U A52G A54G, the self-cleavage was 1.38. The same measure for A36G U37C A59U U130C: 0.75; for A33U A51U A59G U103C U139C: 0.11.

Consider A33U A110G A129G U131C, for which the self-cleavage turned out to be 0.05. Then G31A A86G U131C, with 1.04; and A33U A52G A59G A89C A90G, with 0.96.

C32A U49C A51U A69G: the self-cleavage turned out to be 1.4.

For the variant A33G A111U A116G, the self-cleavage came out at 0.03. On to A33C U38C A59G A110G, for which the self-cleavage turned out to be 0.16. On to C32A A118G U124C, for which the self-cleavage amounted to 0.33. Then C35U U38C A59G A86C U120C, with 0.45. The same measure for A33G G44A U122C: 0.25.

With A33G U43C U103C, the self-cleavage worked out at 0.51. For the variant C32U A68G A98G U130C, the self-cleavage turned out to be 0.37. Then A36G U38C A62G A68G, with 1.75; and A33G U87A A92G, with 0.76; and A33U A114G A117G U122C, with 0.22. The same measure for A33U A51G U108C U131C: 0.01; for A33G U38C A52G A134G: 0.97. In the case of A33G U37C U87C, the self-cleavage amounted to 0.85. The same measure for A36G A54G A116G U122A: 0.35; for A36G U72A A91U: 0.38; for C32U A63G C112A: 0.05. The same measure for G31U U97C U102G: 0.47; for A33G A62C U124C U131C: 0.29; for C34U A116G U132A: 0.67. With C32U A68G A95G U124C, the self-cleavage was determined as 1.3.

Turning to A33G A36U U38C A54G A56G A60C A135G, the self-cleavage was 0.96.

As to A33U C34A U37C U43A U70C, the self-cleavage was determined as 0.78. Take C32U G80A A117G: the self-cleavage was found to be 0.33. With A33U U39C U49C, the self-cleavage is 1.39.

As for A36C U38C A118G, the self-cleavage worked out at 1.46. The same measure for A33G A95U A98G: 0.4. Then A33U U72A A116U, with 0.08; and A33U U43C U131C, with 1.14.

For A33G G74A A98G U108C A116G A126G, the self-cleavage is 0. For A33G A64G A68G, the self-cleavage came to 0.89. The same measure for A36G A52G A94G U139A: 1.59. Then A36G U43C A55G A135G, with 2.1; and A33G A51U A68G U87C A90G C112U G115A, with 0.

As for A33G U87C A95G, the self-cleavage was 0.32. The same measure for A33G A54G A69G A82G A90G: 0.28; for A33G U49C U133C: 1.2. The same measure for A33G A91G A98G: 0.27; for A36C G53A A63C U70C A91G: 1.07. The same measure for C34G A59G U120C: 0.77; for A36G A47G A114U: 0; for A33U A118U U139C: 0.73. Consider A33G A94G U124C, for which the self-cleavage stood at 0.4. Then A33G A89G A91G A92G, with 0.47; and A33G A117G U120A, with 1.58. Then A33U A47U U87C U108C U130C, with 0.

Turning to A33G A91G U122C, the self-cleavage turned out to be 0.13. As for A33U A55G A66U U87G, the self-cleavage was 0.89.

In the case of G31A G80U A89G U127G, the self-cleavage was determined as 0.22. The same measure for A36G C85U G136A: 1.28. On to A36G A91G U120C, for which the self-cleavage turned out to be 0.45.

In the case of A36G U37C U49C U57C A125G, the self-cleavage is 0.15. The same measure for A36G U100C U132C: 2.31; for A33G U39C A55G A56G A92G A110U: 0.33.

As for C32A U37C A59G A63G, the self-cleavage worked out at 2.15. Then A33U A56G A95G A96G U103A C109U, with 0.02; and A33G U72A A82G, with 0.16.

As to A36G C105U A114G C121G, the self-cleavage was 0.01. The same measure for A36G G50U A140U: 1.23. Then C34U A86G U122A, with 1.27; and A33G U37G A90G, with 0.41; and A36G A47U A96G, with 0.66.

Consider A33G U72C U122A, for which the self-cleavage came out at 0.12.

In the case of G31U A55G A94G, the self-cleavage amounted to 1.46. The same measure for A33U A64G A67G A90U A96G A135U: 1.44; for C35A A59G A140G: 1.57; for A33G U43C A118G: 0.13. Then A33G A64G A82U, with 0.04; and A33G U70C A90G A110G U122C, with 0.01; and C32U A62G A90U A129G, with 1.72. Then A33G A36U U108A U131C, with 0.01. In the case of A33G G44U U131C, the self-cleavage was determined as 0.39. Then A33G A78C A98G U102C G136C, with 0.21. Regarding A33G A126U U127C, the self-cleavage was found to be 0.14.

Turning to A36G A60G A114G U130A, the self-cleavage worked out at 0.07.

In the case of A36G U72C A118G, the self-cleavage was 0.12.

As for A33G A54G A56G A67G U108A, the self-cleavage was 0.03. The same measure for A33G A82U U87C A94G U124A U133G A135U G137A: 0.42.

As to A33C G115A A118G, the self-cleavage is 0.07. The same measure for A33G U72A A82G A90G: 0.1. Then A33G A36G U43G A52G, with 0.97; and C32U A86G U139C, with 2.27.

As for A33G A67C A126G, the self-cleavage stood at 1.64.

Turning to A36G A54G A92U, the self-cleavage came to 1.25. For A33C A56G A59G A98C, the self-cleavage came to 1.13. Take A33U U70C A94G U108C A110G C128U: the self-cleavage was determined as 0. Then A33G A59G A67G A117G, with 0.9; and A36G G44A A95U, with 1.52. The same measure for A36C A59G A89G U108C A118U: 0.01; for A33C U87A A111C U120G: 0.02; for A33U U87C A96G: 0.57. Regarding A33G U43C A90U, the self-cleavage is 1.38. The same measure for A33U U87C A90G U131C: 0.14; for C32U C101U A140G: 0.59; for A33G A66G U103C: 0.51. Then A33G U49C A118G, with 0.26; and G31C A60G U87C G115A A118G, with 0.01. The same measure for C34U A118G A135G: 0.97. As for A33C A64G A92U A114G, the self-cleavage was determined as 0.04.

Turning to C32U U57C U122A, the self-cleavage is 1.46. Then A33U U43A A125G, with 0.6. Then A36G U38C A54G, with 2.84; and A36G A54G A67G A114G, with 0.89; and A33G A69G A94U U130C, with 0.76.

Regarding A33G U39C A56G A114G, the self-cleavage was determined as 0.14. Then A36G A67G U132C, with 1.71. Then A33G A59G A68G, with 1.25; and A33U A51U A134G, with 2.48; and A36G U43A A67G U131C, with 2.44. The same measure for A33G A56G A94G A96G: 0.98. As for C32U A33G A64G, the self-cleavage turned out to be 0.39.

For A33C A51U A54U, the self-cleavage was 1.44. Take A36G U37C U43A U49C A68G U103C: the self-cleavage amounted to 0.8.

On to A33G A54G A114G, for which the self-cleavage stood at 0.01.

Regarding A33U A51G A89G A96G, the self-cleavage amounted to 1.57.

For the variant A36G A91G A95G, the self-cleavage is 1.79.

As to C32U A62U U122A, the self-cleavage came to 1.88. For C32U A62U U122C, the self-cleavage came out at 1.49.

On to C32U A47G A96G, for which the self-cleavage worked out at 1.1. The same measure for A36G A51G A63G: 2.08; for A33G G99C U100C: 0.13; for C34U U49A U87C: 1.74. Then A33G A78G A82G U127G, with 0.08; and A33U A51U A56G A86G A96G U108C, with 0.01; and A33G A52G U131C, with 0.64. The same measure for G31U A36G A66G A94G A117G: 1.82; for A33G A91G A140G: 0.51; for A33G U70A U132C: 0.24. For the variant A36G A55G A69C A90G, the self-cleavage came out at 1.29. Then C34U A47G A60G A86U, with 0.81; and C32U A92G A114U, with 0.09. The same measure for A33G A52G U108C A118G: 0.01. The same measure for A33G A54G A134U: 1.88.
